Data published in the supplement of paper PMC8728848.
The list shows a part of the results.

Tests used:
Test in all cases: glycan array binding signal (z-score within array); higher = stronger binding
Settings in all cases: glycan notation: IUPAC condensed, linker removed; mutation: R120K
[1] = molecular target: Man(a1-3)[Man(a1-6)]Man(a1-6)[Man(a1-2)Man(a1-3)]Man(b1-4)GlcNAc(b1-4)GlcNAc
Outline: (§1)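 Negative Z-scores can be read as non-binding. The Z-score is calculated within each array and then averaged across arrays of one protein sequence at different concentrations or buffers and across linkers. Arrays, 3228 in all, were curated from the Consortium for Functional Glycomics database and kept only where the protein sequence was available.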

[2] = molecular target: Man(a1-3)[Man(a1-6)]Man(a1-6)[Man(a1-3)]Man
Outline: as §1

[3] = molecular target: Man(a1-3)[Man(a1-6)]Man(a1-6)[Man(a1-3)]Man(b1-4)GlcNAc(b1-4)GlcNAc
Outline: as §1

[4] = molecular target: Man(a1-3)[Man(a1-6)]Man(b1-4)GlcNAc(b1-4)GlcNAc
Outline: as §1

[5] = molecular target: Man(a1-3)[Man(a1-6)]Man(b1-4)GlcNAc(b1-4)[Fuc(a1-6)]GlcNAc
Outline: as §1

[6] = molecular target: Man(a1-6)Man
Outline: as §1

[7] = molecular target: Man(b1-4)GlcNAc
Outline: as §1

[8] = molecular target: MurNAc(b1-4)GlcNAc
Outline: as §1

[9] = molecular target: Neu5Ac(a2-3)Gal
Outline: as §1

[10] = molecular target: Neu5Ac(a2-3)Gal(b1-3)GalNAc
Outline: as §1

[11] = molecular target: Neu5Ac(a2-3)Gal(b1-3)GalNAc(b1-3)Gal(a1-4)Gal(b1-4)Glc
Outline: as §1

[12] = molecular target: Neu5Ac(a2-3)Gal(b1-3)GalNAc(b1-4)Gal(b1-4)Glc
Outline: as §1

[13] = molecular target: Neu5Ac(a2-3)Gal(b1-3)GalNAc(b1-4)[Neu5Ac(a2-3)]Gal(b1-4)Glc
Outline: as §1

[14] = molecular target: Neu5Ac(a2-3)Gal(b1-3)GalNAc(b1-4)[Neu5Ac(a2-8)Neu5Ac(a2-3)]Gal(b1-4)Glc
Outline: as §1

[15] = molecular target: Neu5Ac(a2-3)Gal(b1-3)GalNAc6S
Outline: as §1

[16] = molecular target: Neu5Ac(a2-3)Gal(b1-3)GlcNAc
Outline: as §1

[17] = molecular target: Neu5Ac(a2-3)Gal(b1-3)GlcNAc(b1-2)Man
Outline: as §1

[18] = molecular target: Neu5Ac(a2-3)Gal(b1-3)GlcNAc(b1-2)Man(a1-3)[GlcNAc(b1-4)][Neu5Ac(a2-3)Gal(b1-3)GlcNAc(b1-2)Man(a1-6)]Man(b1-4)GlcNAc(b1-4)GlcNAc
Outline: as §1

[19] = molecular target: Neu5Ac(a2-3)Gal(b1-3)GlcNAc(b1-2)Man(a1-3)[Neu5Ac(a2-3)Gal(b1-3)GlcNAc(b1-2)Man(a1-6)]Man(b1-4)GlcNAc(b1-4)GlcNAc
Outline: as §1

[20] = molecular target: Neu5Ac(a2-3)Gal(b1-3)GlcNAc(b1-2)[Neu5Ac(a2-3)Gal(b1-3)GlcNAc(b1-4)]Man(a1-6)[Neu5Ac(a2-3)Gal(b1-3)GlcNAc(b1-2)Man(a1-3)]Man(b1-4)GlcNAc(b1-4)GlcNAc
Outline: as §1

[21] = molecular target: Neu5Ac(a2-3)Gal(b1-3)GlcNAc(b1-3)Gal(b1-3)GlcNAc
Outline: as §1

[22] = molecular target: Neu5Ac(a2-3)Gal(b1-3)GlcNAc(b1-3)Gal(b1-4)GlcNAc
Outline: as §1

[23] = molecular target: Neu5Ac(a2-3)Gal(b1-3)GlcNAc(b1-3)GalNAc
Outline: as §1

[24] = molecular target: Neu5Ac(a2-3)Gal(b1-3)GlcNAc(b1-6)GalNAc
Outline: as §1

[25] = molecular target: Neu5Ac(a2-3)Gal(b1-3)GlcNAc6S
Outline: as §1

[26] = molecular target: Neu5Ac(a2-3)Gal(b1-3)[Fuc(a1-4)]GlcNAc
Outline: as §1

[27] = molecular target: Neu5Ac(a2-3)Gal(b1-3)[Fuc(a1-4)]GlcNAc(b1-3)Gal(b1-3)[Fuc(a1-4)]GlcNAc
Outline: as §1

[28] = molecular target: Neu5Ac(a2-3)Gal(b1-3)[Fuc(a1-4)]GlcNAc(b1-3)Gal(b1-4)[Fuc(a1-3)]GlcNAc
Outline: as §1

[29] = molecular target: Neu5Ac(a2-3)Gal(b1-3)[GlcNAc(b1-6)]GalNAc
Outline: as §1

[30] = molecular target: Neu5Ac(a2-3)Gal(b1-3)[Neu5Ac(a2-6)]GalNAc
Outline: as §1

[31] = molecular target: Neu5Ac(a2-3)Gal(b1-3)[Neu5Ac(a2-6)]GlcNAc(b1-3)[Fuc(a1-3)[Gal(b1-4)]GlcNAc(b1-6)]Gal(b1-4)Glc
Outline: as §1

[32] = molecular target: Neu5Ac(a2-3)Gal(b1-3)]Neu5Ac(a2-3)Gal(b1-4)]GlcNAc
Outline: as §1

[33] = molecular target: Neu5Ac(a2-3)Gal(b1-4)Glc
Outline: as §1

[34] = molecular target: Neu5Ac(a2-3)Gal(b1-4)GlcNAc
Outline: as §1

[35] = molecular target: Neu5Ac(a2-3)Gal(b1-4)GlcNAc(b1-2)Man
Outline: as §1

[36] = molecular target: Neu5Ac(a2-3)Gal(b1-4)GlcNAc(b1-2)Man(a1-3)[GlcNAc(b1-4)][Neu5Ac(a2-3)Gal(b1-4)GlcNAc(b1-2)Man(a1-6)]Man(b1-4)GlcNAc(b1-4)GlcNAc
Outline: as §1

[37] = molecular target: Neu5Ac(a2-3)Gal(b1-4)GlcNAc(b1-2)Man(a1-3)[Neu5Ac(a2-3)Gal(b1-4)GlcNAc(b1-2)Man(a1-6)]Man(b1-4)GlcNAc(b1-4)GlcNAc
Outline: as §1

[38] = molecular target: Neu5Ac(a2-3)Gal(b1-4)GlcNAc(b1-2)Man(a1-3)[Neu5Ac(a2-3)Gal(b1-4)GlcNAc(b1-2)Man(a1-6)]Man(b1-4)GlcNAc(b1-4)[Fuc(a1-6)]GlcNAc
Outline: as §1

B1: Siglec-9 (Homo sapiens), Q9Y336 (protein)
chain: MLLLLLPLLWGRERAEGQTSKLLTMQSSVTVQEGLCVHVPCSFSYPSHGWIYPGPVVHGYWFREGANTDQDAPVATNNPARAVWEETRDRFHLLGDPHTKNCTLSIRDARRSDAGRYFFKMEKGSIKWNYKHHRLSVNVTALTHRPNILIPGTLESGCPQNLTCSVPWACEQGTPPMISWIGTSVSPLDPSTTRSSVLTLIPQPQDHGTSLTCQVTFPGASVTTNKTVHLNVSYPPQNLTMTVFQGDGTVSTVLGNGSSLSLPEGQSLRLVCAVDAVDSNPPARLSLSWRGLTLCPSQPSNPGVLELPWVHLRDAAEFTCRAQNPLGSQQVYLNVSLQSKATSGVTQGVVGGAGATALVFLSFCVIFVVVRSCRKKSARPAAGVGDTGIEDANAVRGSASQGPLTEPWAEDSPPDQPPPASARSSVGEGELQYASLSFQMVKPWDSRGQEATDTEYSEIKIHR
glycan array binding signal (z-score) [1]: 0.271 | glycan array binding signal (z-score) [2]: -0.329 | glycan array binding signal (z-score) [3]: 0.694 | glycan array binding signal (z-score) [4]: -0.278 | glycan array binding signal (z-score) [5]: -0.037 | glycan array binding signal (z-score) [6]: 0.192 | glycan array binding signal (z-score) [7]: -0.372 | glycan array binding signal (z-score) [8]: -0.723 | glycan array binding signal (z-score) [9]: -0.145 | glycan array binding signal (z-score) [10]: 4.95 | glycan array binding signal (z-score) [11]: -0.208 | glycan array binding signal (z-score) [12]: 0.412 | glycan array binding signal (z-score) [13]: -0.03 | glycan array binding signal (z-score) [14]: 0.069 | glycan array binding signal (z-score) [15]: -0.189 | glycan array binding signal (z-score) [16]: -0.28 | glycan array binding signal (z-score) [17]: 0.105 | glycan array binding signal (z-score) [18]: 0.17 | glycan array binding signal (z-score) [19]: 3.12 | glycan array binding signal (z-score) [20]: -0.426 | glycan array binding signal (z-score) [21]: -0.724 | glycan array binding signal (z-score) [22]: -0.308 | glycan array binding signal (z-score) [23]: 0.017 | glycan array binding signal (z-score) [24]: 0.486 | glycan array binding signal (z-score) [25]: 0.096 | glycan array binding signal (z-score) [26]: -0.157 | glycan array binding signal (z-score) [27]: -0.114 | glycan array binding signal (z-score) [28]: -0.008 | glycan array binding signal (z-score) [29]: -0.241 | glycan array binding signal (z-score) [30]: -0.344 | glycan array binding signal (z-score) [31]: -0.514 | glycan array binding signal (z-score) [32]: -0.118 | glycan array binding signal (z-score) [33]: 4.42 | glycan array binding signal (z-score) [34]: -0.401 | glycan array binding signal (z-score) [35]: 0.712 | glycan array binding signal (z-score) [36]: -0.284 | glycan array binding signal (z-score) [37]: -0.478 | glycan array binding signal (z-score) [38]: -0.324
